# In all, about 110,000 compounds were measured (“z-score”: median about -0.1, highest 2% from about 2 on). The list shows a part of the results. Active and inactive are the calls of the source.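 How the source made its calls: active means z-score in the third read window above 3 or below -3; inactive means the rest.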
# Target: Metabotropic glutamate receptor 8 (Rattus norvegicus) (UniProt P70579)
# Assay: mGluR8 Gi/Go-coupled signaling modulation – cell-based, rat, thallium flux, HTS, primary screen (AID 488969)
# Details: HEK293 rat mGluR8, GIRK (G protein-gated inwardly rectifying potassium channel) thallium flux, FluoZin2; at 10 µM; stronger effect = higher value; submaximal glutamate (EC20) added with thallium
# UniProt P70579, sequence (P70579 whole entry, looked up): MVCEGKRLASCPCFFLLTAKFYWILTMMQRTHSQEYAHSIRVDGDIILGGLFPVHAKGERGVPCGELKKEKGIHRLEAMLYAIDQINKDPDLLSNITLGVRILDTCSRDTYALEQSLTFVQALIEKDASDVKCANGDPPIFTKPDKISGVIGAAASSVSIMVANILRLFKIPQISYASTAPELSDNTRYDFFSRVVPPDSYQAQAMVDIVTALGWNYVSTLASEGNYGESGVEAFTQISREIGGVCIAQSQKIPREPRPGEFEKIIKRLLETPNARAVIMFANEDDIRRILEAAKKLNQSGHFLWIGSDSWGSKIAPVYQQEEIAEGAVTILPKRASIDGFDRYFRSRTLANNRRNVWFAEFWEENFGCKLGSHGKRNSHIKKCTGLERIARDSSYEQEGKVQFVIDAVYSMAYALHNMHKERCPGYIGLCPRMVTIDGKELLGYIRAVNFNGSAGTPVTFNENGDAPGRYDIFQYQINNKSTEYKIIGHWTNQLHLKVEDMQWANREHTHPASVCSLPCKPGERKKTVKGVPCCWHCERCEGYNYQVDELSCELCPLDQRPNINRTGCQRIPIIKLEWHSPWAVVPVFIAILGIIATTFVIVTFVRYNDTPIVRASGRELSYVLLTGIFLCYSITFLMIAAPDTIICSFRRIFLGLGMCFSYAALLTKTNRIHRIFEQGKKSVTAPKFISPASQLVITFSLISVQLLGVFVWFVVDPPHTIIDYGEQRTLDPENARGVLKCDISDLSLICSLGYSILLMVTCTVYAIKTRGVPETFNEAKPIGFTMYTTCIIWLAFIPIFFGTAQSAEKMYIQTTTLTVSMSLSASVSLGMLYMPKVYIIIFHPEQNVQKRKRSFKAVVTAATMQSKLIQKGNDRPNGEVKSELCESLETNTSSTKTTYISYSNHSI
row,SMILES,z-score
1,O=S(=O)(c1cccc(F)c1)N1CCN(Cc2ccc3c(c2)OCO3)CC1,0.162
2,COCCN(C(=S)Nc1cc(C)ccc1C)C(C)c1cccnc1 (stereo not given),-0.226
3,O=C(CSc1nccn1-c1ccc(Cl)cc1)N1CCCc2ccccc21,-0.0979
4,CCOC(=O)c1sc2nc(CC(C)C)c3c(c2c1N)CCC3,0.235
5,CCOC(=O)N1CCN(c2c(NCCN3CCCCC3CC)c(=O)c2=O)CC1 (stereo not given),0.153
6,CC(C)N(C#N)c1nc(N2CCOCC2)nc(N2CCOCC2)n1,-1.06
7,CCOC(=O)C1CCCN(C(=O)CCCn2nc(C)n3c(cc4sccc43)c2=O)C1 (stereo not given),-0.373
8,COc1ccc(OC)c(N2Cc3ccccc3C2)c1,-0.948
9,CCC(C)NC(=O)CSc1nc2ccccc2c(=O)n1CCCC(=O)NCC1CCCO1 (stereo not given),0.139
10,O=C(CCC1CCCCC1)Nc1ccc(S(=O)(=O)Nc2nccs2)cc1,0.362
11,CC(=O)Nc1cccc2c1C(=O)NC2=O,0.274
12,O=C(CN1CCN(c2ccccc2F)CC1)c1c[nH]c2ccccc12,0.0394
13,CCNc1nc(N)nc(Oc2ccc(OCC)nn2)n1,-0.561
14,O=C(NCC(c1cccnc1)N1CCN(c2ccccc2)CC1)c1ccc2c(c1)OCO2 (stereo not given),0.0727
15,CCOc1ccc(N2C(=O)CC(NC3CCCCNC3=O)C2=O)cc1 (stereo not given),-0.232
16,Cc1ccc(CN2CCN(CC(=O)NC(C)c3ccc4c(c3)OCCO4)C2=O)cc1 (stereo not given),0.0215
17,CCCOC(=O)c1c(N)sc2c1CCC2,-0.748
18,CCCCCN(C(=O)NC(=O)Nc1ccc(C)cc1)S(=O)(=O)c1ccccc1,-0.107
19,CCS(=O)(=O)N1CCCC(C(=O)NCCc2ccc(OC)c(OC)c2)C1 (stereo not given),0.485
20,COCCCn1c(=N)c(C(=O)NC2CCCCC2)cc2c(=O)n3ccccc3nc21,-0.225
21,Cc1ccc(-c2nc3cc(N)ccc3o2)cc1,-0.0633
22,CCCCCn1c(CN2CCN(c3cc(Cl)ccc3C)CC2)nc2c1c(=O)[nH]c(=O)n2C,0.74

row,SMILES,z-score
1,O=C(c1ccco1)N1CCN(c2nc(C3CC3)nc3c2nnn3Cc2ccccc2Cl)CC1,0.00404
2,CC(=O)Nc1ccc(NCN2C(=O)C3C4CCC(C4)C3C2=O)cc1 (stereo not given),0.0136
3,CCOc1ccc(-c2nc(C#N)c(NCc3ccc4c(c3)OCO4)o2)cc1,0.406
4,Cc1nc2cc(-c3sccc3-n3cccc3)nn2c(C)c1C,0.334
5,COc1ccc2nc(SCC(=O)O)nc(C)c2c1,-0.216
6,COC(=O)c1sc(S(=O)(=O)N2CCCCC2C(=O)O)c(C(=O)OC)c1C (stereo not given),-0.184
7,O=C(NCc1cccnc1)c1ccc(CS(=O)(=O)c2ccc(Cl)cc2)o1,0.0226
8,Cc1nc2scc(-c3cccs3)c2c(=O)[nH]1,0.0765
9,CN(C)CCN1C(=O)C(O)=C(C(=O)c2cc3ccccc3o2)C1c1ccc(N(C)C)cc1 (stereo not given),-0.145
10,COc1cc(=O)n(C)c2cc(N(C)C)ccc12,-0.569
11,CCN1CCN(CC(=O)Nc2ccccc2)C(=O)C1=O,-0.229
12,CCc1ccc(NC(=O)CSc2n[nH]c(C)c2[N+](=O)[O-])cc1,-0.0704
13,COC(=O)c1ccccc1NC(=O)CN1CCC(n2nnc3cc(C(F)(F)F)ccc32)CC1,-0.434
14,COc1ccc(N2CCN(C(=O)CSc3nc4c(c(=O)n(C)c(=O)n4C)n3C(C)C)CC2)cc1,0.00806
15,Clc1cccc(Cl)c1CNC1CCCC1,0.0492
16,COC(=O)Nc1ccc(C)c2nsnc12,-0.223
17,O=C(NCc1cc(C(F)(F)F)cc(C(F)(F)F)c1)C1CC(c2c(Cl)cccc2Cl)=NO1 (stereo not given),-0.111
18,O=C(Nc1ccccc1C(=O)N1CCCC1)c1cccc(S(=O)(=O)N2CCCCC2)c1,-0.309
19,O=S(=O)(Nc1nc2ccccc2nc1Nc1ccc2c(c1)OCO2)c1ccc(F)cc1,-0.192
20,C#CCN(C#N)c1nc(NCC)nc(NC(C)C)n1,-0.177
21,CCN(CC)C(=O)c1cccc(-c2ccc(OC)cc2)c1,-0.0256
22,CCOC(=O)c1cc(NC(=O)N(CC)C2CCCCC2)c(C)nc1C,-0.22

row,SMILES,z-score
1,COc1ccc(N(C(=O)COc2ccccc2OC)S(=O)(=O)c2ccc(C)cc2)cc1,-0.375
2,Cc1ccc(NC(=O)c2ccc(Cl)c(N3C(=O)C=CC3=O)c2)cc1,-0.0244
3,Cc1cc(C)c(NC(=O)CN(c2ccccc2)S(=O)(=O)N(C)C)c(C)c1,-0.0557
4,Cc1ccc(/C=N\NC(=O)Cn2c(C)nc3ccccc32)o1,-0.152
5,CCn1c(-c2cc3c(C(F)(F)F)nn(C)c3s2)n[nH]c1=S,active: 7
6,CC(C)OC(=O)c1c(NC(=O)c2cnn3c2NC(c2ccccc2)CC3C(F)F)sc2c1CCCC2 (stereo not given),-0.443
7,CCC(C)/C(C)=N/NC(=O)c1cn(-c2ccccc2)nc1-c1ccccc1 (stereo not given),-0.313
8,Fc1ccccc1/C=C1\CCCC2=C1Nc1nnnn1C2c1ccccc1F (stereo not given),0.114
9,O=C(CN1CCN(c2ccccn2)CC1)Nc1ccc(OCc2ccccc2)cc1,-0.123
10,CCC(=O)NC(/C=C/c1ccccc1)c1cc([N+](=O)[O-])c2cccnc2c1O (stereo not given),0.0672
11,COc1ccc(-n2c(C)cc(SC)c(C(C)=O)c2=S)cc1,-0.0894
12,O=[N+]([O-])c1cc(/C=N/O)ccc1Sc1ccccc1,1.5
13,O=C(COC(=O)/C=C/c1cn(-c2ccccc2)nc1-c1cccnc1)Nc1ccc(Cl)cc1Cl,0.113
14,CS(=O)(=O)N(CC(=O)Nc1ccccc1Sc1ccccc1)C1CCCCC1,-0.0112
15,O=S(=O)(NCc1cn2ccccc2n1)c1cc(F)ccc1F,0.364
16,CCc1nnc(NC(=O)CSc2nnc(COc3ccccc3C)o2)s1,0.0603
17,CC1=C(C(N)=O)C(c2cccc(OCc3ccccc3)c2)n2nnnc2N1 (stereo not given),-0.387
18,O=C(Oc1ccc2ccc(OC(=O)N3CCOCC3)cc2c1)N1CCOCC1,-0.11
19,Cn1cccc1-c1nc2ccc(NC(=O)c3ccc([N+](=O)[O-])cc3)cc2[nH]1,0.0495
20,CCOC(=O)C1=C(C)Nc2nc(SC)nn2C1c1ccc(C(=O)OC)cc1 (stereo not given),-0.402
21,N#Cc1nc(N2CCCCC2)nc(N2CCOCC2)n1,-0.0259
22,C/C(Cl)=C/Cn1c(SCc2ccc(Cl)cc2)nc2c1c(=O)[nH]c(=O)n2C,-0.0677

row,SMILES,z-score
1,CCCNC(=O)C(=O)c1cccn1-c1ccsc1C(=O)OC,-0.122
2,CCN=C1SC(C(=O)NCCc2ccccc2)CC(=O)N1CC (stereo not given),-0.161
3,CN1CCc2nc(SCC(=O)Nc3cccc(F)c3)c(C#N)c(-c3cccs3)c2C1,-0.0246
4,COc1ccc(C(=O)c2ccc(OC)c(OC)c2)cc1OC,-0.174
5,CCOc1ccccc1Nc1nnc(SCC(=O)N2CCCC2)s1,0.0764
6,O=C1CC(c2ccncc2)c2cc3c(cc2N1)OCCO3 (stereo not given),active: 7.59
7,CC(=O)Nc1ccc(S(=O)(=O)N(C)c2ccc(O)cc2)cc1,0.0757
8,CCC(=O)OCCn1c(=O)c2cc3c(=O)n(CCOC(=O)CC)c(=O)c3cc2c1=O,-0.0607
9,CC(C)(C)c1ccc(/C=N/Nc2ccc(C(=O)O)cc2)cc1,-0.659
10,CCOC(=O)C1CCCN(C2CC(=O)N(c3cccc(C)c3)C2=O)C1 (stereo not given),0.0843
11,O=C(Nc1nc(-c2ccc3c(c2)OCCO3)cs1)c1ccc(S(=O)(=O)N2CCCCC2)cc1,1
12,COc1cccc(C(=O)NN/C(C)=C/C(=O)C(F)(F)C(F)(F)C(F)(F)F)c1,-0.145
13,O=S(=O)([N-]c1nc2ccccc2nc1-[n+]1ccccc1)c1ccccc1,0.0342
14,COc1ccc(CCNC(=O)c2cc(-c3ccccc3)on2)cc1OC,0.914
15,O=C(NCCC1=CCCCC1)c1coc(=O)c(Br)c1,-0.132
16,Cc1ccc(C(=O)c2cc([N+](=O)[O-])ccc2N2CCOCC2)cc1C,-0.0564
17,CCCn1nnnc1NC(=O)COc1ccc(Cl)c(C)c1,0.736
18,O=C(O)C1C2C=CC(O2)C1C(=O)NCc1ccc(Cl)cc1 (stereo not given),0.78
19,Cc1cc(N2C(=O)C(=O)/C(=C(/O)c3ccc(F)cc3)C2c2ccc(F)cc2)no1 (stereo not given),-1
20,Cc1ccccc1OC1C(=O)N(Cc2ccc3c(c2)OCO3)C1c1sccc1C (stereo not given),-0.226
21,COC(=O)c1ccc(NC(=S)N2CCN(Cc3ccc(Cl)cc3)CC2)cc1,-0.52
22,O=c1c2ccccc2nnn1CSc1ccc2ccccc2n1,-0.0528

row,SMILES,z-score
1,Cc1ccc(/C(N)=N/OC(=O)CCc2ccccc2)cc1,-0.148
2,O=C1CNC(=S)N1c1nc(-c2ccccc2)cs1,0.219
3,COc1ccc(-c2cnnc(N/N=C/c3ccc(O)c(OC)c3)n2)cc1,-0.134
4,Nc1nc(-c2ccc3ccccc3c2)c(C2(O)C(=O)Nc3c(Br)cc(F)cc32)s1 (stereo not given),0.203
5,Cc1cc(C=C2C(=O)c3ccccc3C2=O)c(C)n1-c1ccccc1,1.73
6,O=C(CC(c1ccccc1)c1ccccc1O)N1CCCC1 (stereo not given),0.0324
7,CCOc1ccc(-c2csc(NC(=O)CSC3=NC(=O)CN3C(C)=O)n2)c2ccccc12,-0.151
8,CN(c1ccccc1C(=O)O)S(C)(=O)=O,-0.188
9,CCN(C(=O)CN1CCN(c2ccccc2)CC1)c1c(N)n(Cc2ccccc2)c(=O)[nH]c1=O,-0.349
10,COc1ccc(NC(=S)N2CCC(N(C)CCN3CCOCC3)CC2)cc1Cl,-0.269
11,CCOC(=O)c1c(NC(=O)OC)sc2c1CCC2,0.00121
12,CCOC(=O)c1sc2nc(C(C)C)c3c(c2c1N)CC(C)(C)OC3,-0.0374
13,O=C(CSc1n[nH]c(-c2ccccc2)n1)NC(=O)NCc1ccco1,-0.0403
14,CCOC(=O)c1ccc(NC(=O)CSc2nnc(-c3cccs3)n2C)cc1,-0.387
15,CCCn1c(SCC#N)nc2c(c1=O)C1(CCCC1)Cc1ccccc1-2,-0.934
16,Clc1ccc(Nc2ncnc3ccc(Br)cc23)cc1,-0.324
17,COC(=O)c1cc(NC(=O)CSc2nc(C)cc(=O)[nH]2)cc(C(=O)OC)c1,-1.48
18,N#CC(c1ccc(O)cc1)N1CCOCC1 (stereo not given),0.128
19,CCOC(=O)C1=C(O)/C(=C\c2cccc(OC)c2)N=C1C,-0.194
20,CC(=O)Nc1cccc(NC(=O)CSc2nc(C)c(C)c(C)c2C#N)c1,-0.0738
21,Cc1nc2ccccc2c2nc(N)nn12,0.346
22,COc1cc(-c2nnc3n(CCc4ccccc4)c(=O)c4ccccc4n23)cc(OC)c1OC,-0.27

# Source: PubChem BioAssay AID488969 (Vanderbilt High Throughput Screening Facility, 2010)
